For 61 compounds, inhibition results are on record in PubChem BioAssay AID485344 (National Center for Advancing Translational Sciences (NCATS), 2010).

SMILES strings stand for the structures. Screen size: about 340,000 compounds; about 6,900 (2%) were called active. Cut-off read from the data, not from the text of the source: active = inhibition above about 30%; inactive = below that, where a call was filed. The entries are a selection whose mix differs from that of the whole data set. The source gives no active or inactive call for entries shown without one.

The target of this experiment is D(2) dopamine receptor (Homo sapiens) (UniProt P14416). Put plainly: HTS Assay for Allosteric Antagonists of the Human D2 Dopamine Receptor: Primary Screen for Antagonists. Note: 0% is about no effect. Particulars: HEK293 TREx D2 cells, calcium flux, dopamine EC80; at 10 µM; stronger effect = higher value. Put shortly: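 Measurement of antagonist activity uses fluorescent calcium dye in inducible HEK293 T-REx D2 cells: 10 s baseline, compound addition with 180 s read, EC80 dopamine addition with a further 180 s read.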
Chain of UniProt P14416 (P14416 whole entry, looked up): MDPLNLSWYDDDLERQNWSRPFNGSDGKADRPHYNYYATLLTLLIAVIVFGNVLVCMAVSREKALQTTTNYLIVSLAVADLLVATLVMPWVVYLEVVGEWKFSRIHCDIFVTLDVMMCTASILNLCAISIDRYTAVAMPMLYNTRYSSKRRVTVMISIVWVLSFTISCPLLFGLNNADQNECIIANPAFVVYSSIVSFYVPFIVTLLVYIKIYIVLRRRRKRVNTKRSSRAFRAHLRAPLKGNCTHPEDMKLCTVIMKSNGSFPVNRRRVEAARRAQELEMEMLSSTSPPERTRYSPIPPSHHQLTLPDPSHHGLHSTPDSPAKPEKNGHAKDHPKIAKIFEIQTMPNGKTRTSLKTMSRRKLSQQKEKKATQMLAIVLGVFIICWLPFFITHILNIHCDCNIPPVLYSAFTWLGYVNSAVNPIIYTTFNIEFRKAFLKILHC
(In general: A change in cytosolic calcium serves as a functional read-out for many receptors and channels.)
`N#Cc1cc2c(=O)n3ccccc3nc2n(-c2nnc(SCc3ccc(F)cc3)s2)c1=O`: the inhibition (commonly the drop in the measured response relative to a control, in per cent) was -7.66%.

`O=C(NCCCN1CCN(c2ccc(F)cc2)CC1)c1cc2c(s1)-c1ccccc1OC2`: the inhibition was -13.8%. With `CCOC(=O)c1ccc2c(c1)N(CC(=O)Nc1cc(F)ccc1F)C(=O)c1ccccc1S2` the figure was -8.77%; with `CC1=C(C(N)=O)C(c2cccc(C)c2)n2nc(-c3ccc(Cl)cc3)nc2N1` (stereo unspecified), -0.579%; with `CSc1ccccc1NC(=O)C1=CC(c2ccc3c(c2)OCO3)=NS(=O)(=O)N1C`, 7.21%.

In the case of `CCOc1ccc(-c2nc3c(c(CC)nn3-c3ccccc3)c3cc(OC)c(OC)cc23)cc1`, the inhibition was -7.13%.

Turning to `Cc1cccc(-c2nc3cc(NC(=O)Cc4ccc(Cl)cc4)ccc3o2)c1`, the inhibition was 2.59%.

As for `CCOC(=O)CCN(Cc1ccccc1)S(=O)(=O)c1csc(C(N)=O)c1`, the inhibition was -5.41%. The same measure for `CCN(C(=O)Cn1nc2c3cc(F)ccc3n(Cc3cccc(C)c3)cc-2c1=O)c1cccc(C)c1`: 0.778%; for `COc1ccc(C(CNC(=O)c2cc(F)c(F)c(F)c2F)N2CCOCC2)cc1` (stereo unspecified): active: 39.8%. Regarding `Cn1ccc2cc(S(=O)(=O)N3CCCN(C(=O)Nc4ccc(Br)cc4)CC3)ccc21`, the inhibition worked out at 19.8%. With `Cc1ccc(Nc2c(-c3ccc(N(C)C)cc3)nc3ccccn23)cc1` the figure was 0.696%; with `CCOc1ccccc1C(=O)N(Cc1ccc(N(C)C)cc1)Cc1ccco1`, -4.66%; with `O=C(c1cccc(Cl)c1)N1CCC(c2nc3c(nnn3Cc3ccc(F)cc3F)c(=O)[nH]2)CC1`, -19.7%.

For the compound `Cc1ccc(-c2nnc(Nc3ccc(Cl)cc3)c3ccccc23)cc1S(=O)(=O)NCC1CCCO1` (stereo unspecified), the inhibition was -8.81%. The same measure for `COc1cc(C(=O)Nc2ccccc2OCc2cc(=O)n3cc(C)sc3n2)cc(OC)c1OC`: -3.08%; for `COc1ccc(C(=O)c2cn(Cc3ccccc3F)c3ccc(F)cc3c2=O)cc1`: 20.7%; for `COc1ccc(-c2[nH]c(-c3ccc(OC)c(OC)c3)nc2SCC(=O)Nc2ccccc2)cc1`: -14.7%. For `Cc1cccc(NC(=O)c2oc3ccc(S(=O)(=O)N4CCCCC4)cc3c2C)c1C`, the inhibition was -12%. With `COc1ccc(CNC(=O)CN(C)c2nn3c(=O)cc(C)nc3s2)cc1` the figure was -6.57%. The same measure for `COc1cccc(C2=NN(S(C)(=O)=O)C(c3cn(-c4ccccc4)nc3-c3cccs3)C2)c1` (stereo unspecified): 2.01%; for `CC(=O)c1ccc(N2CCN(C(=O)CS(=O)(=O)c3cccc4nsnc34)CC2)cc1`: -14.3%; for `COc1ccccc1NC(=O)N1CC=C(c2c[nH]c3ccccc23)CC1`: 7.03%. With `Cc1cc(=O)[nH]c2nnc(SCCC(C)C)n12`, the inhibition came out at 9.31%.

On to `Cc1ccc(-c2noc(-c3ccc(NCC4CCCO4)c([N+](=O)[O-])c3)n2)cc1` (stereo unspecified), for which the inhibition was -3.34%. The same measure for `COc1ccc(CCNC(=O)CSc2nnc(-c3ccc(C)cc3)c(-c3ccc(C)cc3)n2)cc1OC`: -1.31%. With `CCC(=O)N1CCc2cc(S(=O)(=O)NC(C(=O)NCc3ccccc3Cl)C(C)C)ccc21` (stereo unspecified) the figure was 11.8%.

As for `Cc1nn(C(=O)c2ccccc2)c(C)c1S(=O)(=O)N1CCOCC1`, the inhibition is -16.1%. As for `CC1=C(C(=O)NCCN2CCN(C)CC2)C2(CCC(C)CC2)OC1=O` (stereo unspecified), the inhibition was active: 61.5%. `COc1ccc(CNC(=O)c2ccc(-c3nc(CSc4ccc(C)cc4)c(C)o3)cc2)cc1OC`: the inhibition is 1.23%. The same measure for `Cc1c(C(=O)NCc2ccccc2Cl)sc2nc(-c3ccc(F)cc3)cn12`: 24.6%; for `CCOC(=O)CN(Cc1ccccc1)C(C(=O)NC1CCCCC1)c1ccc(C)cc1` (stereo unspecified): -9.31%; for `CCOC(=O)C1CCN(C(=O)Cn2c(-c3cccs3)cc3cc(Cl)ccc32)CC1`: -3.45%.

With `COC(=O)C1Sc2[nH]c(=O)sc2C(c2ccc(Cl)cc2)C1C(=O)OC` (stereo unspecified), the inhibition is active: 37.6%. The same measure for `Cc1nnnn1CC(=O)Nc1ccccc1[N+](=O)[O-]`: active: 36.5%; for `CCOc1ccccc1CNS(=O)(=O)c1ccc2c(c1)C(C)(C)C(=O)N2C`: 0.822%.

Regarding `COc1ccc(N2CCN(CC(O)COc3ccc(C)cc3C)CC2)cc1` (stereo unspecified), the inhibition was -23.7%. With `Cc1ccc(CNC(=O)CCS(=O)(=O)c2cc3c(cc2Cl)NC(=O)CO3)cc1` the figure was 12.2%; with `CC1=C(c2ccc(C)cc2)S(=O)(=O)NC1=NCCCN1CCN(c2cc(C)ccc2C)CC1`, 17.1%; with `Cc1ccc(Cl)cc1N1CCN(C(=O)CN2C(=O)COc3ccc(S(=O)(=O)N4CCC(C)CC4)cc32)CC1`, 12.5%. As for `CCOCCCNCc1ccc(OC)c(OC)c1`, the inhibition was active: 36.2%. The same measure for `COc1ccc(N2CCN(c3ncnc4c3cnn4-c3ccc(C)c(Cl)c3)CC2)cc1`: -17.7%. The same measure for `CC(C)(C)C(=O)NC1(C(F)(F)F)NC(=O)N(c2ccc(F)cc2)C1=O` (stereo unspecified): 12.8%; for `O=C(NCc1ccc(Cl)cc1)c1ccc(NC(=O)N2CC3CCCN3c3ccccc32)cc1` (stereo unspecified): 6.46%; for `Cc1cc(C)c2c(n1)SCC(=O)N2CC(=O)Nc1ccc(C)c(C)c1`: 12.8%. With `COCCNc1ncnc2c1cnn2-c1cc(Cl)ccc1C` the figure was -11.4%; with `O=C(CCNS(=O)(=O)c1ccccc1)NCCSc1ccc(Br)cc1`, active: 45.1%. Consider `Cn1nc(C(=O)NCc2cccc(Cl)c2)c2c1-c1ccccc1SC2`, for which the inhibition was -7.88%. With `CN1CCN(C(c2ccc(Cl)cc2Cl)c2sc3nc(-c4ccco4)nn3c2O)CC1` (stereo unspecified) the figure was 7.95%; with `Cc1ccc(S(=O)(=O)C2(C(=O)Nc3ccc(C)c(Cl)c3)CC2)cc1`, -9.49%. The same measure for `CCC(=O)N1c2ccccc2CC1C(=O)NCCc1ccccc1Cl` (stereo unspecified): -16.7%; for `Cc1ccc(OCC(=O)Nc2ccc(OCc3cc(=O)n4ccsc4n3)cc2)cc1`: -14%. `O=S(=O)(NCc1ccccc1Cl)c1ccc(-c2cnc(C3CC3)o2)cc1`: the inhibition was -9.28%. The same measure for `COc1ccc(N2C(=O)CSC23C(=O)N(Cc2ccccc2F)c2ccccc23)cc1Cl` (stereo unspecified): 4.8%; for `Cc1c(CC(=O)N2CCCCC2)c(=O)oc2cc3occ(C(C)(C)C)c3cc12`: -0.547%; for `COc1ccc(-c2cn3cccnc3n2)cc1NC(=O)COc1ccccc1`: 7.52%.

Regarding `CCC1=Nc2cc(C(=O)NCc3ccccc3OC)ccc2Sc2ccc(Cl)cc21`, the inhibition was 6.15%. The same measure for `Cc1ccccc1CNC(=O)c1cccc(NC(=O)c2nsc3ccccc23)c1`: -14.8%; for `COc1ccccc1C1=NS(=O)(=O)N(C)C(C(=O)Nc2cc(OC)c(OC)c(OC)c2)=C1`: 16.5%; for `Cc1ccc2c(c1)c1c(c(=O)n(-c3cccc(Cl)c3)c(=O)n1CC(=O)c1ccc(Cl)cc1)n2C`: 21.3%.

Take `CC(C)Cn1cc(NC(=O)NCc2ccccc2)c2ccccc2c1=O`: the inhibition is -3.4%.
